# According to publication PMC4336329 (PLoS ONE, 2015):
# About 14,000 (4.5%) of roughly 310,000 compounds showed an effect of 50% or more. Effects have a minus sign here. Some of the results follow.
# Molecular target: human ether-à-go-go-related gene (hERG) potassium channel (human, UniProt Q12809)
# Experiment: primary screen, population patch clamp on CHO cells stably expressing hERG
# 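Also: peak tail current of the secondary pulse compared with the same well before compound.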
# Chain of human ether-à-go-go-related gene (hERG) potassium channel (Q12809 whole entry, looked up): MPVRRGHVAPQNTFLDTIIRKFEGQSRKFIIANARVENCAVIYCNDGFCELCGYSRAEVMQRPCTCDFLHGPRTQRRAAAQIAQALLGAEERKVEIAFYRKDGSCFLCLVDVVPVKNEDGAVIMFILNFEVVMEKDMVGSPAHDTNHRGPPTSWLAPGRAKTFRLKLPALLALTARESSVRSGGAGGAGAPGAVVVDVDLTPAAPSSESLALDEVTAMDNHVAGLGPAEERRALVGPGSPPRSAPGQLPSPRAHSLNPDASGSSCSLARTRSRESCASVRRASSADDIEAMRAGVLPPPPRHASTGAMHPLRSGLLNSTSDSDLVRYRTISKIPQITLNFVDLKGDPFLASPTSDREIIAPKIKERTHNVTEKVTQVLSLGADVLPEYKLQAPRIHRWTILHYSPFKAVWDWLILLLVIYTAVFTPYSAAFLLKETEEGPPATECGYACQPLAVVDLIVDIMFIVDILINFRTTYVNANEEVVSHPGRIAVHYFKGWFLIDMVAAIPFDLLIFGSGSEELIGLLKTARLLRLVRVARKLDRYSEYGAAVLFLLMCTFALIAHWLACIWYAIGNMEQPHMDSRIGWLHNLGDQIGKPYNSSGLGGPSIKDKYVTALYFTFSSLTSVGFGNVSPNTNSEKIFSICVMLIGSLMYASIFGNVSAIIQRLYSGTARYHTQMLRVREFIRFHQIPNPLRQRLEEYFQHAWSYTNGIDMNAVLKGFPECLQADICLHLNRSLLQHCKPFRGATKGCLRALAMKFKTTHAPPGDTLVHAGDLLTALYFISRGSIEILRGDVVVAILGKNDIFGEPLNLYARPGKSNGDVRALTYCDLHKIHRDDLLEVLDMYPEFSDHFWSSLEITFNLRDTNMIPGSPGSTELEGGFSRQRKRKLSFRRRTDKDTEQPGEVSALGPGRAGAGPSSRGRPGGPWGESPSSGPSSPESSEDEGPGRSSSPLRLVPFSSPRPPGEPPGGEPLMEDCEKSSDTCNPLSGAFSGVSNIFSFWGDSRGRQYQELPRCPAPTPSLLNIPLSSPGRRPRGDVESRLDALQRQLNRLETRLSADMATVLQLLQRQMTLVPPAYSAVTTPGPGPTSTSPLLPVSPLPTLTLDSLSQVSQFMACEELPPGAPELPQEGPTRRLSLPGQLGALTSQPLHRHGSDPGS
row,Compound,"hERG current change (%, negative = inhibition) at 10uM"
1,COc1ccc(OC)c(/C=C2/Sc3ccccc3C2=O)c1,18.5%
2,Cc1cc(=O)[nH]c(SCC(=O)N2CCN(C(c3ccccc3)c3ccccc3)CC2)n1,-14.4%
3,CC(=O)c1ccc(Nc2nc(NCCO)nc(OC(C(F)(F)F)C(F)(F)F)n2)cc1,-39.3%
4,Cc1cc(/C=C(\C#N)C(=O)Nc2ccccc2F)c(C)[nH]1,47.9%
5,COc1ccc(/C=N/Nc2nc3ccccc3o2)cc1O,-19.2%
6,NS(=O)(=O)c1cccnc1Nc1cccc(Cl)c1,11.8%
7,CC(C)c1ccc(S(=O)(=O)NCc2ccc3c(c2)OCO3)cc1,-9.6%
8,COC(=O)COc1ccc(S(=O)(=O)Nc2ccc(C(N)=O)cc2)cc1Cl,19%
9,CCOc1cc(/C=N/NC(N)=O)cc(Br)c1OCC(=O)Nc1cccc2ccccc12,18.4%
10,Br.COc1ccc2c(c1)[C@]13CCCC[C@@H]1[C@H](C2)N(C)CC3.O,-5.88%
11,O=C(CSc1ncnc2c1oc1ccccc12)Nc1ccccc1F,11.8%
12,COc1ccc(-n2c(SCC(=O)N3CCc4ccccc43)nnc2-c2c[nH]c3ccccc23)cc1,22.1%
13,Cc1cc(C)n(C(=O)CNC(=O)CCc2ccccc2)n1,0.648%
14,COc1ccc(CSCC(=O)Nc2ccccc2SC)cc1,-3.93%
15,CC(NC(=O)COc1cc(=O)n(C)c2ccccc12)c1ccc2c(c1)OCCO2 (stereo not shown),-3.34%
16,CCOc1ccc(CN2CCN(C3CCC3)CC2CCO)cc1 (stereo not shown),-19.2%
17,CC(C)(C)C1CCC(=NNc2nc3ccccc3[nH]2)CC1 (stereo not shown),7.01%
18,COc1ccc(C=C2C(=O)OC(C)(C)OC2=O)cc1OC,20.2%
19,CCCC(=O)OCCNc1cc(SCCC(=O)OC)c2nonc2c1[N+](=O)[O-],-25.9%
20,O=C(C1CCCCC1)N1CCC(n2nnc3ccccc32)CC1,-10.9%
21,Cc1cccc(NC(=S)NCCc2ccccc2)c1C,-11.8%
22,C/C(=N\Nc1nc(N2CCCCCC2)nc(N2CCCCCC2)n1)c1ccccc1,10.4%

row,Compound,"hERG current change (%, negative = inhibition) at 10uM"
1,CC(/C=C/c1ccc(C)o1)=C\C(=O)O,11.6%
2,CCOc1ccccc1NC(=O)CSc1nnc(Cn2c(=O)sc3ccccc32)n1C,-61.9%
3,Cc1cc(=O)oc(C)c1C(=O)N1CCN(C(c2ccccc2)c2ccccc2)CC1,-28.2%
4,c1csc(-c2nnc(COc3ccc4c(c3)OCO4)o2)c1,-2.91%
5,C=CCNC(=O)c1ccccc1NS(=O)(=O)c1ccc(OC)c(C(=O)N2CCOCC2)c1,18.4%
6,Cc1c(Oc2ccc(C(F)(F)F)cc2[N+](=O)[O-])ccc2c3c(c(=O)oc12)CCC3,-0.903%
7,CC1CS(=O)(=O)CCN1N=Cc1ccc([N+](=O)[O-])o1 (stereo not shown),-2.66%
8,CC(C(=O)Nc1cccc(S(=O)(=O)N2CCOCC2)c1)N1CCN(C/C=C/c2ccccc2)CC1 (stereo not shown),-75%
9,C#CCn1cccc(C(=O)Nc2ccc(OC)cc2)c1=O,-0.236%
10,COc1ccc(CCNC(=O)c2ccc(CNS(=O)(=O)c3cccc(Cl)c3)cc2)cc1OC,-16.4%
11,O=C(COC(=O)C(Cc1ccccc1)NC(=O)c1ccco1)NC1CC1 (stereo not shown),5.59%
12,COc1cc(C2C(C(=O)c3ccco3)=C(O)C(=O)N2Cc2ccccc2)ccc1O (stereo not shown),19.1%
13,N#Cc1cc2c(nc1SCC(O)CS(=O)(=O)Cc1ccccc1)CCCC2 (stereo not shown),-35.9%
14,Cc1ccc(C(=O)COC(=O)CNC(=O)c2ccccc2)s1,1.41%
15,COc1cc(CCC(=O)Nc2c(C(=O)N3CCN(c4ccccc4OC)CC3)oc3ccccc23)on1,-5.8%
16,COc1ccc(S(=O)(=O)N2CCCCCC2)cc1C(=O)N(C)Cc1ccccc1F,-53.2%
17,O=S1(=O)CCO[C@H]2Cc3ccccc3[C@H]2N1Cc1cccc(F)c1,-22.1%
18,Nn1c(COc2ccccc2)nnc1SC(F)F,1.8%
19,O=C(NCc1ccc(/C=c2\sc3n(c2=O)CCN=3)o1)C(=O)Nc1ccccc1,7.82%
20,CCC1(c2ccccc2)NC(=O)N(CC(=O)NC2(C#N)CCCCC2)C1=O (stereo not shown),2.94%
21,COc1ccc2nc(N3C(=O)C(O)=C(C(=O)c4ccco4)C3c3ccccc3OC)sc2c1 (stereo not shown),13.1%
22,C#CCNC(=O)C1=C[C@@H](c2csc3ccccc23)C[C@@H](OCc2ccc(CO)cc2)O1,-13.2%

row,Compound,"hERG current change (%, negative = inhibition) at 10uM"
1,Cc1ccc(NC(=O)c2ccccc2)cc1OC(=O)c1ccccc1,15.2%
2,COc1cccc(NC(=S)N(CCCN2CCCC(C)C2)Cc2cccs2)c1 (stereo not shown),-67.4%
3,C/C=C/c1ccccc1OCc1ccc(C(=O)OC)o1,1.46%
4,COc1ccc(S(=O)(=O)N2CCCCCC2)cc1C(=O)N(C)CC(=O)Nc1c(Cl)cccc1Cl,-28.1%
5,CCc1nn2c(=O)cc(COC(=O)c3ccc(SC)cc3OC)nc2s1,-18.7%
6,CCCCc1ccc(NC(=O)COc2ccc(C(=O)Nc3ccccc3OCC)cc2)cc1,12%
7,CCC(Cc1ccccc1)NC(=O)C1CCN(c2nn3c(=O)cc(C)nc3s2)CC1 (stereo not shown),-18.8%
8,COc1cccc(NCc2cc(=O)oc3cc(C)c(C(C)C)cc23)c1,16.4%
9,COc1ccccc1N1CCN(Cc2c[nH]c3ccccc23)CC1,-55.8%
10,Cc1ccc2c(C)c(C(=O)Nc3ccc(S(=O)(=O)Nc4onc(C)c4C)cc3)oc2c1,-2.03%
11,Nn1c(Cc2ccc(F)cc2)n[nH]c1=S,16.5%
12,CCOc1ccc(-c2nnn(CCC#N)n2)cc1OC,15.2%
13,O=Cc1cc(N=Nc2ccc(S(=O)(=O)[O-])cc2)ccc1O.[Na+],36.1%
14,c1cc2c(cc1C1CCCCC1)c1c3n2CCN=C3CCC1,-33.9%
15,CC(=O)c1ccc(NC(=O)Nc2ccc([N+](=O)[O-])cc2C)cc1,-13.3%
16,NC(=S)N=Nc1c(O)n(Cc2ccc(F)cc2)c2ccccc12,12.4%
17,COCCn1c(C)cc(/C=C2\NC(=S)N(C)C2=O)c1C,6.01%
18,COc1ccc(C(=O)CNc2ccccc2C#N)cc1,28.1%
19,COc1cc(SC)ccc1C(=O)Nc1ccccc1C#N,3.84%
20,COc1cc(/C=N/NC(=O)c2cc3ccccc3cc2O)ccc1OCCN1CCCCC1,-65.9%
21,O=C(CSc1ccc(Cl)cc1)OCc1nnc(-c2ccccc2)o1,5.33%
22,CC(N=c1ccccn1C(=O)Nc1cccc(C(F)(F)F)c1)c1ccco1 (stereo not shown),-2.34%

row,Compound,"hERG current change (%, negative = inhibition) at 10uM"
1,COc1ccc(CC(C)NC2CCCCCC2)cc1 (stereo not shown),2.9%
2,O=C(/C=C\Nc1ccc(Cl)cn1)c1ccc(Br)cc1,4.41%
3,COc1ccccc1CC(=O)Nc1ccc(NC(=O)c2cccs2)cc1,0.16%
4,C#CCNC(=O)C1=C[C@@H](c2ccccc2)[C@H](CCCO)[C@@H](OCC)O1,13.3%
5,CC(/C=C/c1ccccc1)=N/NC(=O)C(O)c1ccccc1 (stereo not shown),42.9%
6,Cc1ccc2nc(SCC(=O)N3CCN(c4ccccc4)CC3)[nH]c2c1,1.42%
7,CC(C)C(=O)Nc1nnc(NC(=S)Nc2ccccc2)s1,7.63%
8,O=C(c1cc2sccc2n1Cc1ccccc1)N1CCN(c2nc3ccccc3s2)CC1,-17%
9,N#C/C(=C\c1cn(CC(=O)O)c2ccccc12)C(=O)NCc1ccccc1,12%
10,CCC(=O)Nc1ccc(/C(C)=N\NC(=O)c2ccc(C)s2)cc1,5.93%
11,CC(=O)Nc1cccc(/C(C)=N/Nc2nc3ccccc3s2)c1,2.1%
12,CCCN1CCN(C(=O)Nc2ccc(OCC)cc2)CC1,-1.93%
13,Cl.Clc1cccc(OCCn2ccnc2)c1,10.2%
14,COc1ccc(C(=O)Nc2cc3c(cc2Cl)OCCCO3)cc1,8.27%
15,O=C(NCCNC(=O)c1cc(Cl)ccc1Cl)c1ccco1,-32%
16,COc1cc(C(c2oc(CO)cc(=O)c2O)c2oc(CO)cc(=O)c2O)cc(OC)c1OC,24.9%
17,O=C(Nc1cccc(Cl)c1)Nc1ccc2c(c1)C(=O)OC2,3.43%
18,CCC1(CC)C(=O)NC(=Nc2cccc(C(F)(F)F)c2)NC1=O,5.57%
19,CCn1cc(C(=O)NCCCOC(C)C)c(=O)c2cc(S(=O)(=O)N3CCOCC3)ccc21,-7.88%
20,CCN(CC)S(=O)(=O)c1ccc(Cl)c(NC(=O)COc2ccc(OC)cc2)c1,16.4%
21,Cl.O=C(Oc1cccc2cccnc12)c1cccs1,-2.13%
22,Cc1cccc(CSc2nc3c(c(=O)[nH]2)CCCC3)c1,5.48%
